Data from a compilation of properties of binary mixtures (doi:10.1021/ie302343v).
Some of these densities may be calculated back from excess volumes.

Assay: xn = mol fraction of the nth substance listed
Conditions: 101 kPa

CCCCCC(=O)[O-].C[NH2+]CCO + CCOC(C)=O
mass density (288.15 K, x2 = 0): 1001.1 kg/m3 | mass density (288.15 K, x2 = 0.3111): 985.8 kg/m3 | mass density (288.15 K, x2 = 0.5971): 963.2 kg/m3 | mass density (288.15 K, x2 = 0.9017): 924.5 kg/m3 | mass density (288.15 K, x2 = 0.9499): 916.5 kg/m3 | mass density (288.16 K, x2 = 0.0719): 997.4 kg/m3 | mass density (288.16 K, x2 = 0.1039): 995.3 kg/m3 | mass density (288.16 K, x2 = 0.4946): 973.1 kg/m3 | mass density (288.16 K, x2 = 0.7005): 952.4 kg/m3 | mass density (288.16 K, x2 = 0.8031): 938.7 kg/m3 | mass density (293.14 K, x2 = 0.8031): 933.5 kg/m3 | mass density (293.15 K, x2 = 0): 997.6 kg/m3 | mass density (293.15 K, x2 = 0.0719): 993.8 kg/m3 | mass density (293.15 K, x2 = 0.3986): 976 kg/m3 | mass density (293.15 K, x2 = 0.4946): 968.8 kg/m3 | mass density (293.15 K, x2 = 0.7005): 947.6 kg/m3 | mass density (293.15 K, x2 = 0.9017): 918.8 kg/m3 | mass density (298.14 K, x2 = 0.4946): 964.6 kg/m3 | mass density (298.14 K, x2 = 0.8031): 928.3 kg/m3 | mass density (298.15 K, x2 = 0): 994.2 kg/m3 | mass density (298.15 K, x2 = 0.1039): 988.1 kg/m3 | mass density (298.15 K, x2 = 0.1973): 985.1 kg/m3 | mass density (298.15 K, x2 = 0.3111): 977.3 kg/m3 | mass density (298.15 K, x2 = 0.5971): 954.5 kg/m3 | mass density (298.15 K, x2 = 0.7005): 942.8 kg/m3 | mass density (298.15 K, x2 = 0.9017): 913.1 kg/m3 | mass density (298.16 K, x2 = 0.9499): 904.7 kg/m3 | mass density (303.14 K, x2 = 0.0719): 986.5 kg/m3 | mass density (303.14 K, x2 = 0.1039): 984.5 kg/m3 | mass density (303.14 K, x2 = 0.3111): 973.3 kg/m3 | mass density (303.14 K, x2 = 0.4946): 960.3 kg/m3 | mass density (303.14 K, x2 = 0.7005): 937.9 kg/m3 | mass density (303.15 K, x2 = 0): 990.7 kg/m3 | mass density (303.15 K, x2 = 0.1973): 981.2 kg/m3 | mass density (303.15 K, x2 = 0.9017): 907.4 kg/m3 | mass density (303.15 K, x2 = 0.9499): 898.8 kg/m3 | mass density (308.14 K, x2 = 0): 987.1 kg/m3 | mass density (308.14 K, x2 = 0.1039): 981 kg/m3 | mass density (308.14 K, x2 = 0.3111): 969.3 kg/m3 | mass density (308.14 K, x2 = 0.4946): 955.9 kg/m3 | mass density (308.14 K, x2 = 0.5971): 945.7 kg/m3 | mass density (308.14 K, x2 = 0.7005): 933 kg/m3 | mass density (308.15 K, x2 = 0.8031): 917.6 kg/m3 | mass density (308.15 K, x2 = 0.9017): 901.6 kg/m3 | mass density (313.14 K, x2 = 0): 983.6 kg/m3 | mass density (313.14 K, x2 = 0.0719): 979.4 kg/m3 | mass density (313.14 K, x2 = 0.1039): 977.4 kg/m3 | mass density (313.14 K, x2 = 0.1973): 972.7 kg/m3 | mass density (313.14 K, x2 = 0.3111): 965.3 kg/m3 | mass density (313.14 K, x2 = 0.3986): 959.6 kg/m3 | mass density (313.14 K, x2 = 0.4946): 951.6 kg/m3 | mass density (313.14 K, x2 = 0.7005): 928 kg/m3 | mass density (313.15 K, x2 = 0.5971): 941.2 kg/m3 | mass density (313.15 K, x2 = 0.8031): 912.3 kg/m3 | mass density (313.15 K, x2 = 0.9017): 895.8 kg/m3 | mass density (313.16 K, x2 = 0.9499): 886.7 kg/m3 | mass density (318.14 K, x2 = 0.1039): 973.9 kg/m3 | mass density (318.14 K, x2 = 0.1973): 968.5 kg/m3 | mass density (318.14 K, x2 = 0.4946): 947.2 kg/m3 | mass density (318.14 K, x2 = 0.5971): 936.8 kg/m3 | mass density (318.15 K, x2 = 0): 980.2 kg/m3 | mass density (318.15 K, x2 = 0.0719): 975.8 kg/m3 | mass density (318.15 K, x2 = 0.7005): 923 kg/m3 | mass density (323.14 K, x2 = 0.1039): 970.2 kg/m3 | mass density (323.14 K, x2 = 0.5971): 932.2 kg/m3 | mass density (323.15 K, x2 = 0): 976.7 kg/m3 | mass density (323.15 K, x2 = 0.0719): 972.2 kg/m3 | mass density (323.15 K, x2 = 0.3111): 957.3 kg/m3 | mass density (323.15 K, x2 = 0.4946): 942.8 kg/m3 | mass density (323.15 K, x2 = 0.7005): 918 kg/m3 | mass density (323.15 K, x2 = 0.8031): 901.5 kg/m3 | mass density (323.15 K, x2 = 0.9017): 884 kg/m3 | mass density (323.15 K, x2 = 0.9499): 874.5 kg/m3 | mass density (328.14 K, x2 = 0.0719): 968.5 kg/m3 | mass density (328.14 K, x2 = 0.1973): 960.7 kg/m3 | mass density (328.14 K, x2 = 0.4946): 938.4 kg/m3 | mass density (328.15 K, x2 = 0): 973.1 kg/m3 | mass density (328.15 K, x2 = 0.3111): 953.3 kg/m3 | mass density (328.15 K, x2 = 0.3986): 947.1 kg/m3 | mass density (328.15 K, x2 = 0.8031): 896 kg/m3 | mass density (328.15 K, x2 = 0.9017): 878 kg/m3 | mass density (328.16 K, x2 = 0.9499): 868.3 kg/m3

CCCCCC(=O)[O-].C[NH2+]CCO + COC(C)=O
mass density (288.14 K, x2 = 0.3045): 993.8 kg/m3 | mass density (288.15 K, x2 = 0.0512): 999.4 kg/m3 | mass density (288.15 K, x2 = 0.1336): 998.1 kg/m3 | mass density (288.15 K, x2 = 0.2149): 996.3 kg/m3 | mass density (288.15 K, x2 = 0.403): 990.2 kg/m3 | mass density (288.15 K, x2 = 0.5063): 985.6 kg/m3 | mass density (288.15 K, x2 = 0.5982): 980.7 kg/m3 | mass density (288.15 K, x2 = 0.7999): 964.1 kg/m3 | mass density (288.15 K, x2 = 0.9011): 953.1 kg/m3 | mass density (288.15 K, x2 = 0.9512): 946.8 kg/m3 | mass density (293.14 K, x2 = 0.1336): 994.4 kg/m3 | mass density (293.14 K, x2 = 0.9011): 947.2 kg/m3 | mass density (293.14 K, x2 = 0.9512): 940.6 kg/m3 | mass density (293.15 K, x2 = 0.0512): 995.9 kg/m3 | mass density (293.15 K, x2 = 0.2149): 992.6 kg/m3 | mass density (293.15 K, x2 = 0.3045): 990 kg/m3 | mass density (293.15 K, x2 = 0.403): 986.2 kg/m3 | mass density (293.15 K, x2 = 0.5063): 981.3 kg/m3 | mass density (293.15 K, x2 = 0.5982): 976.2 kg/m3 | mass density (293.15 K, x2 = 0.6976): 968.7 kg/m3 | mass density (293.15 K, x2 = 0.7999): 958.7 kg/m3 | mass density (298.14 K, x2 = 0.1336): 990.7 kg/m3 | mass density (298.14 K, x2 = 0.3045): 986.1 kg/m3 | mass density (298.14 K, x2 = 0.403): 982.1 kg/m3 | mass density (298.14 K, x2 = 0.7999): 953.3 kg/m3 | mass density (298.15 K, x2 = 0.2149): 988.9 kg/m3 | mass density (298.15 K, x2 = 0.5982): 971.6 kg/m3 | mass density (298.15 K, x2 = 0.9011): 941.2 kg/m3 | mass density (298.15 K, x2 = 0.9512): 934.4 kg/m3 | mass density (298.16 K, x2 = 0.0512): 992.3 kg/m3 | mass density (303.14 K, x2 = 0.2149): 985.2 kg/m3 | mass density (303.14 K, x2 = 0.6976): 958.9 kg/m3 | mass density (303.14 K, x2 = 0.7999): 947.9 kg/m3 | mass density (303.15 K, x2 = 0): 990.7 kg/m3 | mass density (303.15 K, x2 = 0.3045): 982.3 kg/m3 | mass density (303.15 K, x2 = 0.403): 978.1 kg/m3 | mass density (303.15 K, x2 = 0.5063): 972.7 kg/m3 | mass density (303.15 K, x2 = 0.5982): 967.1 kg/m3 | mass density (303.15 K, x2 = 0.9011): 935.2 kg/m3 | mass density (308.14 K, x2 = 0): 987.1 kg/m3 | mass density (308.14 K, x2 = 0.6976): 953.9 kg/m3 | mass density (308.14 K, x2 = 0.7999): 942.4 kg/m3 | mass density (308.14 K, x2 = 0.9011): 929.1 kg/m3 | mass density (308.15 K, x2 = 0.0512): 985.2 kg/m3 | mass density (308.15 K, x2 = 0.2149): 981.4 kg/m3 | mass density (308.15 K, x2 = 0.5063): 968.3 kg/m3 | mass density (308.15 K, x2 = 0.5982): 962.5 kg/m3 | mass density (308.16 K, x2 = 0.9512): 921.6 kg/m3 | mass density (308.22 K, x2 = 0.403): 973.8 kg/m3 | mass density (313.14 K, x2 = 0): 983.6 kg/m3 | mass density (313.14 K, x2 = 0.0512): 981.7 kg/m3 | mass density (313.14 K, x2 = 0.5982): 957.8 kg/m3 | mass density (313.14 K, x2 = 0.6976): 948.9 kg/m3 | mass density (313.14 K, x2 = 0.7999): 936.9 kg/m3 | mass density (313.15 K, x2 = 0.1336): 979.8 kg/m3 | mass density (313.15 K, x2 = 0.2149): 977.7 kg/m3 | mass density (313.15 K, x2 = 0.3045): 974.5 kg/m3 | mass density (313.15 K, x2 = 0.5063): 963.9 kg/m3 | mass density (313.15 K, x2 = 0.9011): 923 kg/m3 | mass density (313.15 K, x2 = 0.9512): 915.2 kg/m3 | mass density (318.14 K, x2 = 0.7999): 931.3 kg/m3 | mass density (318.15 K, x2 = 0): 980.2 kg/m3 | mass density (318.15 K, x2 = 0.3045): 970.5 kg/m3 | mass density (318.15 K, x2 = 0.5063): 959.5 kg/m3 | mass density (318.15 K, x2 = 0.9011): 916.8 kg/m3 | mass density (318.15 K, x2 = 0.9512): 908.7 kg/m3 | mass density (318.16 K, x2 = 0.0512): 978.1 kg/m3 | mass density (318.16 K, x2 = 0.1336): 976.1 kg/m3 | mass density (318.16 K, x2 = 0.2149): 973.9 kg/m3 | mass density (323.14 K, x2 = 0.5982): 948.5 kg/m3 | mass density (323.14 K, x2 = 0.7999): 925.7 kg/m3 | mass density (323.14 K, x2 = 0.9011): 910.6 kg/m3 | mass density (323.15 K, x2 = 0): 976.7 kg/m3 | mass density (323.15 K, x2 = 0.0512): 974.5 kg/m3 | mass density (323.15 K, x2 = 0.1336): 972.3 kg/m3 | mass density (323.15 K, x2 = 0.2149): 970.1 kg/m3 | mass density (323.15 K, x2 = 0.403): 961.6 kg/m3 | mass density (323.15 K, x2 = 0.5063): 955.1 kg/m3 | mass density (323.15 K, x2 = 0.9512): 902.2 kg/m3 | mass density (328.14 K, x2 = 0.1336): 968.5 kg/m3 | mass density (328.15 K, x2 = 0): 973.1 kg/m3 | mass density (328.15 K, x2 = 0.3045): 962.6 kg/m3 | mass density (328.15 K, x2 = 0.5063): 950.7 kg/m3 | mass density (328.15 K, x2 = 0.5982): 943.9 kg/m3 | mass density (328.15 K, x2 = 0.6976): 933.8 kg/m3 | mass density (328.15 K, x2 = 0.7999): 920.1 kg/m3 | mass density (328.15 K, x2 = 0.9011): 904.3 kg/m3
